Out of some 50,000 compounds screened, about 800 (1.6%) showed an effect of 50% or more. The list shows a part of the results.

The experiment addresses Bcl-2-like protein 10 (Homo sapiens) (UniProt Q9HD36). The experiment can be described thus: TR3 peptide-Bcl-B binding displacers, biochemical primary FP assay, phenotype converters (AID 1240).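 Further: 0% = Bcl-B with tracer peptide and DMSO and 100% = tracer peptide lacking Bcl-B.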 As to conditions: GST-Bcl-B / FITC-TR3 peptide fluorescence polarization; stronger effect = higher value; compound at 3.75 mg/L.
Chain of UniProt Q9HD36 (Q9HD36 whole entry, looked up): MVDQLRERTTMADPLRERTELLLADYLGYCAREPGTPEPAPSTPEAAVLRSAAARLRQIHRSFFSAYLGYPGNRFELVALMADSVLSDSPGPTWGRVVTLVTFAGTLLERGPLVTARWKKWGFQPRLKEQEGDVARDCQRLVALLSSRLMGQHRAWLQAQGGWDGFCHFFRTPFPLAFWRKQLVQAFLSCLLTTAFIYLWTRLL
Consider `COC(=O)C1=C(C)NC(=S)NC1c1ccc(SC)cc1` (stereo unspecified), for which the displacement was 1.4%. With `COc1cc2c(cc1OC)C1=NNC(=O)C1=NC(C)(C)C2`, the displacement was -2.9%. Then `O=c1[nH]nc(N/N=C/c2cccc3ccccc23)c(=O)[nH]1`, with -3.4%.

`N#Cc1ccc(NC(=O)/C=C\C(=O)O)cc1`: the displacement is -3.4%. Turning to `COc1ccccc1NC(=O)c1ccccc1NC(=O)c1cccs1`, the displacement is 3%. Then `CC1=C(C(=O)OC2CCCC2C)C(c2ccc(Br)cc2)NC(=O)N1` (stereo unspecified), with 3.9%; and `O=C(CSc1nnc(-c2ccco2)n1-c1ccccc1)c1ccc2c(c1)Cc1ccccc1-2`, with -20.5%; and `O=C(Nc1ccccc1)Nc1nnc(Cc2cccc(Br)c2)s1`, with 1.9%. As for `COc1ccc(CNS(=O)(=O)c2ccccc2[N+](=O)[O-])cc1`, the displacement was -7.4%. Then `O=C(CSCC(=O)Nc1ccc2ccccc2c1)Nc1ccc(F)cc1`, with 15.6%. Then `CC(C)(C)c1cc(/C=c2/sc3nc4ccccc4n3c2=O)cc(C(C)(C)C)c1O`, with -4.5%.

Consider `O=C1CSC(=Nc2ccc(O)cc2)N1`, for which the displacement stood at 9.3%. Under `O=C1NC(=O)N(c2ccc(I)cc2)C(=O)/C1=C\C=C\c1ccco1` stands 17.6%. Then `CCn1cc(/C=C(/C#N)C(=O)Nc2ccc(OC)cc2)c2ccccc21`, with -3.5%; and `Cc1ccc(Cl)cc1NC(=O)CSc1nc2ccccc2s1`, with 22.8%; and `CCCC(=O)NC(c1ccc(C)cc1)c1c(OC(C)=O)ccc2ccccc12` (stereo unspecified), with 10.1%. Under `O=C(NCc1cccnc1)C(=O)N1CCCC1` stands 11.3%; under `O=C(NCCCn1ccnc1)C(O)(c1ccccc1)c1ccccc1`, -11.4%; under `COP(=O)(OC)C(Nc1cccc(C(F)(F)F)c1)c1ccc(Cl)cc1` (stereo unspecified), 15.1%. On to `COc1ccc(C2CC(=O)C3=C(C2)Nc2ccccc2NC3c2cc(C)ccc2C)cc1` (stereo unspecified), for which the displacement is -3.7%. For the compound `O=C(NNC(=O)C1CCCO1)c1ccc(Cl)cc1` (stereo unspecified), the displacement was -5.2%.

With `O=C(O)c1cc(C(=O)O)c2cc(Cl)ccc2n1`, the displacement turned out to be 4.4%.

In the case of `O=C(c1cccnc1)N1CCCc2ccccc21`, the displacement was determined as 6.5%. Under `CCOc1cc(/C=C2/SC(=S)N(Cc3ccccc3)C2=O)ccc1OCc1ccccc1` stands 22.7%; under `CCOC(=O)C1=C(C)NC(=O)NC1c1ccc(OC)cc1` (stereo unspecified), 12.4%. Under `CC(C)C1=NN2C(=N)/C(=C/c3ccc(-c4ccc([N+](=O)[O-])cc4)o3)C(=O)N=C2S1` stands 111%; under `COc1ccc(Cc2c(O)nc(SCC(=O)Nc3ccccc3OC)[nH]c2=O)cc1`, -0.7%. Then `CN(C)c1ccc(N/C(N)=N/c2nc(C(F)(F)F)cc(=O)[nH]2)cc1`, with -5.8%. In the case of `COC(=O)C1CC(=O)N(c2ccc(O)cc2)C1` (stereo unspecified), the displacement stood at 10.4%.

For `CC(C)(C)c1ccc(C(=O)NCc2ccccn2)cc1`, the displacement came out at 6%. Under `COc1ccc(OC)c(C2C=C(Nc3ccccc3)C(=O)N2c2ccccc2)c1` (stereo unspecified) stands -1.5%.

These data come from PubChem BioAssay AID1240 (Sanford-Burnham Center for Chemical Genomics, 2008).
